Experimental data from the supplement of paper PMC4967469.
By IC50 is meant the dose at which the fit gives 50% viability; fits outside the tested doses are given as limits. For AUC the same curve is integrated over the 256-fold range of doses and scaled to a fraction; the more sensitive the line, the further below 1. For part of these data: Where the top dose is marked as inferred, it comes from the curve model; the source does not state it.

Legend:
Assay in all cases: Viability of human cancer cell lines after 72 h of drug (GDSC screen)
[1] = compound: CC(=O)Nc1nc(C)c(-c2ccc(Cl)c(S(=O)(=O)NCCO)c2)s1 [PIK-93]; conditions: top dose 20 µM
Procedure: (§1)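 Human cancer cell lines in 384-well plates, medium with 10% serum, drug for 72 h over a 256-fold dose range (nine 2-fold or five 4-fold steps up to the top dose). Adherent lines were fixed and stained with the nucleic acid dye Syto60, suspension lines read with resazurin; signal relative to control wells, capped at 0 and 100%. One two-parameter sigmoid per drug and line, fitted in a mixed model over all curves with the slope shared within a line.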

[2] = compound: CC1(C)CCC(c2ccc(Cl)cc2)=C(CN2CCN(c3ccc(C(=O)NS(=O)(=O)c4ccc(N[C@H](CCN5CCOCC5)CSc5ccccc5)c(S(=O)(=O)C(F)(F)F)c4)cc3)CC2)C1 [ABT-263]; conditions: top dose 2 µM; top dose inferred
Procedure: as §1

[3] = compound: COc1cc(/C=C/C(=O)N2CCC=CC2=O)cc(OC)c1OC [piperlongumine]; conditions: top dose 10 µM
Procedure: as §1

[4] = compound: COc1cc2ncn(-c3cc(OCc4ccccc4C(F)(F)F)c(C(N)=O)s3)c2cc1OC [GW843682X]; conditions: top dose 0.256 µM
Procedure: as §1

[5] = compound: Cn1cc(/C=C2\C(=O)Nc3cccnc32)c2ccccc21 [GW 441756]; conditions: top dose 2 µM; top dose inferred
Procedure: as §1

[6] = compound: O=C(/C=C/c1ccccc1)NC(NC(=S)Nc1cccc2cccnc12)C(Cl)(Cl)Cl [Salubrinal]; conditions: top dose 16 µM; top dose inferred
Procedure: as §1

Cell Line | AUC [1] | IC50 [1] | AUC [2] | IC50 [2] | AUC [3] | IC50 [3] | AUC [4] | IC50 [4] | AUC [5] | IC50 [5] | AUC [6] | IC50 [6]
EW-3 (Ewing sarcoma, adherent) | 0.521 | 1440 nM | 0.276 | 26.1 nM | 0.811 | 6230 nM | 0.734 | 83.2 nM | 0.978 | > 2000 nM | 0.981 | > 16000 nM
U-698-M (B-cell leukaemia, suspension) | 0.635 | 2940 nM | 0.987 | > 2000 nM | 0.739 | 3010 nM | 0.969 | > 256 nM | 0.986 | > 2000 nM | 0.955 | > 16000 nM
JiyoyeP-2003 (Burkitt lymphoma, suspension) | 0.69 | 3960 nM | 0.978 | > 2000 nM | 0.838 | 5600 nM | 0.831 | 135 nM | 0.989 | > 2000 nM | 0.905 | > 16000 nM
NCI-H1092 (small cell lung carcinoma, suspension) | 0.93 | > 20000 nM | 0.653 | 334 nM | 0.827 | 6180 nM | 0.866 | 231 nM | 0.99 | > 2000 nM | 0.97 | > 16000 nM
DB (B-cell lymphoma, suspension) | 0.574 | 2050 nM | 0.713 | 545 nM | 0.802 | 5640 nM | 0.859 | > 256 nM | 0.983 | > 2000 nM | 0.892 | > 16000 nM
KCL-22 (chronic myeloid leukaemia, suspension) | 0.757 | 5910 nM | 0.921 | > 2000 nM | 0.818 | 4500 nM | 0.544 | 20.7 nM | 0.991 | > 2000 nM | 0.913 | > 16000 nM
ML-2 (acute myeloid leukaemia, suspension) | 0.324 | 430 nM | 0.456 | 96.1 nM | 0.816 | 4770 nM | 0.38 | 7.8 nM | 0.99 | > 2000 nM | 0.76 | 5060 nM
EKVX (lung adenocarcinoma, adherent) | 0.906 | > 20000 nM | 0.922 | > 2000 nM | 0.863 | > 10000 nM | 0.948 | > 256 nM | 0.946 | > 2000 nM | 0.856 | > 16000 nM
HD-MY-Z (Hodgkin lymphoma, adherent) | 0.705 | 4750 nM | 0.893 | > 2000 nM | 0.654 | 1670 nM | 0.599 | 29.9 nM | 0.943 | > 2000 nM | 0.882 | > 16000 nM
A4-Fuk (B-cell lymphoma, suspension) | 0.859 | 17700 nM | 0.975 | > 2000 nM | 0.797 | 4970 nM | 0.495 | 15.4 nM | 0.973 | > 2000 nM | 0.86 | 14400 nM
NCI-H720 (lung carcinoid, suspension) | 0.946 | > 20000 nM | 0.453 | 94 nM | 0.876 | 8490 nM | 0.916 | > 256 nM | 0.965 | > 2000 nM | 0.789 | 6410 nM
CL-11 (large intestine, adherent) | 0.961 | > 20000 nM | 0.922 | > 2000 nM | 0.819 | 6650 nM | 0.941 | > 256 nM | 0.987 | > 2000 nM | 0.983 | > 16000 nM
TE-1 (oesophagus, adherent) | 0.969 | > 20000 nM | 0.982 | > 2000 nM | 0.706 | 2810 nM | 0.505 | 16.5 nM | 0.937 | > 2000 nM | 0.893 | > 16000 nM
TE-9 (oesophagus, adherent) | 0.987 | > 20000 nM | 0.968 | > 2000 nM | 0.794 | 4800 nM | 0.451 | 11.7 nM | 0.955 | > 2000 nM | 0.888 | > 16000 nM
NOMO-1 (acute myeloid leukaemia, suspension) | 0.378 | 551 nM | 0.388 | 59 nM | 0.757 | 3890 nM | 0.835 | 201 nM | 0.969 | > 2000 nM | 0.84 | 13200 nM
KMOE-2 (acute myeloid leukaemia, suspension) | 0.719 | 4810 nM | 0.513 | 135 nM | 0.782 | 3700 nM | 0.896 | 256 nM | 0.958 | > 2000 nM | 0.792 | 6380 nM
TGBC1TKB (biliary tract, adherent) | 0.954 | > 20000 nM | 0.839 | 1350 nM | 0.823 | 5830 nM | 0.63 | 36.4 nM | 0.989 | > 2000 nM | 0.95 | > 16000 nM
TE-12 (oesophagus, suspension) | 0.9 | > 20000 nM | 0.954 | > 2000 nM | 0.839 | 9090 nM | 0.602 | 32.4 nM | 0.95 | > 2000 nM | 0.846 | 15700 nM
ETK-1 (biliary tract, adherent) | 0.858 | > 20000 nM | 0.972 | > 2000 nM | 0.757 | 3860 nM | 0.506 | 16.7 nM | 0.916 | > 2000 nM | 0.915 | > 16000 nM
OCI-AML2 (acute myeloid leukaemia, suspension) | 0.251 | 305 nM | 0.3 | 40.6 nM | 0.802 | 3540 nM | 0.589 | 26.4 nM | 0.995 | > 2000 nM | 0.926 | 14100 nM
SK-MM-2 (myeloma, suspension) | 0.522 | 1440 nM | 0.437 | 83.5 nM | 0.843 | 7520 nM | 0.863 | 237 nM | 0.987 | > 2000 nM | 0.987 | > 16000 nM
